Measured values reported in US8741883B2, “Compounds and methods for the diagnosis and treatment of amyloid associated diseases” (The Regents of the University of California—San Diego, priority 2005, dated 2014).

Tests used:
[1] = target: catalase-A-beta fibril interaction (Homo sapiens, UniProt P05067); assay: Inhibition of catalase-A-beta fibril interactions (ELISA); conditions: for maximum total inhibition of catalase-A-beta fibril interaction: ThT: at 3 mM and higher
[2] = target: ABAD-A-beta fibril interactions (Homo sapiens, UniProt P05067); assay: Inhibition of ABAD-A-beta fibril interactions (ELISA); format: binding; conditions: for total inhibition of ABAD-A-beta fibril interaction: concentrations above 4 mM (ThT at similar concentrations)
Excerpt: (Yan., S. D., et al., J. Biol. Chem. 1999:274:2145-2156); […]. Shi, A. Zhu, J. Fu, H. Zhu, Y. Zhu, L. Gibson, E. Stem, K. Collison, F. Al-Mohanna, S. Ogawa, A. Roher, […]. Stern, J. Biol. Chem. 1999, 274(4), 2145-2156; S. D. Yan, et al., Biochim. Biophys. Acta 2000:1502:145-157). […] Error bars represent standard deviations.

[3] = target: anti-A-beta IgG (clone 6E10)-A-beta fibril interactions (Homo sapiens, UniProt P05067)
[4] = target: binding of the anti-A-beta IgG (clone 6E10) to the A-beta fibrils (Homo sapiens, UniProt P05067); assay: ELISA-based inhibition of anti-A-beta IgG (clone 6E10) binding to ThT-coated A-beta fibrils; conditions: control compound, FIG. 2c
A-beta fibrils = conditions: by fluorescence, several groups; cited from earlier work

IC50 [1]	maximum total inhibition of catalase-A-beta fibril interaction [1]	IC50 [2]	total inhibition of ABAD-A-beta fibril interaction [2]	Structure (SMILES)	also measured
590 µM	91%	100 to 500 µM	~75%	Cc1ccc2nc(-c3ccc(NCCOCCOCCOCCO)cc3)sc2c1 [BTA-EG4]	
36 µM	92%	100 to 500 µM	~75%	Cc1ccc2nc(-c3ccc(NCCOCCOCCOCCOCCOCCO)cc3)sc2c1 [BTA-EG6]	
				CN1CCC[C@@H]1c1cccnc1 [D-nicotine]	efficacy in the IgG-A-beta inhibition assay (not shown in FIG. 4) [3]: good efficacy
				O=S(=O)([O-])c1ccc(O)c2ccccc12.[Na+] [I-naphthol-4-sulfonate, 1-naphthol-4-sulfonate]	inhibition of the interaction between the IgGs and A-beta fibrils (control experiments) [4]: No inhibition
				Cc1ccc2c(c1)sc(-c1ccc(N(C)C)cc1)[n+]2C.[Cl-] [ThT, Thioflavin T]	Kd for binding to A-beta fibrils (A-beta fibrils): high nM to low μM
